In all, about 390,000 compounds went through this assay and about 4,700 (1.2%) were called active. Inconclusive results, whose numbers are uncertain, are shown with a selection of clear calls. Calls follow the shape of the dose curve; as a rule, active = well fitted inhibition curve with a large enough effect; inconclusive = small, poorly fitted or top-dose-only effect, or another doubt; inactive = no such curve, though single readings can be large or run the other way. Potencies beside an inconclusive call are fits to weak or partial responses and may not hold up.
Target: DNA polymerase eta (Homo sapiens) (UniProt Q9Y253)
Experiment: qHTS for Inhibitors of Polymerase Eta
Conditions: recombinant Pol eta, fluorescent DNA replication assay; series mostly up to 114 µM
Summary of the method: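 Pol eta at 10 nM preincubated with compounds 15 min at room temperature; reaction started with fluorescent substrate (50 nM final) and read kinetically at 0 and 10 min.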
Potency is read from the fitted curve at half-maximal effect; tags tell the direction and shape of the fitted curve.

UniProt Q9Y253, sequence (Q9Y253 whole entry, looked up): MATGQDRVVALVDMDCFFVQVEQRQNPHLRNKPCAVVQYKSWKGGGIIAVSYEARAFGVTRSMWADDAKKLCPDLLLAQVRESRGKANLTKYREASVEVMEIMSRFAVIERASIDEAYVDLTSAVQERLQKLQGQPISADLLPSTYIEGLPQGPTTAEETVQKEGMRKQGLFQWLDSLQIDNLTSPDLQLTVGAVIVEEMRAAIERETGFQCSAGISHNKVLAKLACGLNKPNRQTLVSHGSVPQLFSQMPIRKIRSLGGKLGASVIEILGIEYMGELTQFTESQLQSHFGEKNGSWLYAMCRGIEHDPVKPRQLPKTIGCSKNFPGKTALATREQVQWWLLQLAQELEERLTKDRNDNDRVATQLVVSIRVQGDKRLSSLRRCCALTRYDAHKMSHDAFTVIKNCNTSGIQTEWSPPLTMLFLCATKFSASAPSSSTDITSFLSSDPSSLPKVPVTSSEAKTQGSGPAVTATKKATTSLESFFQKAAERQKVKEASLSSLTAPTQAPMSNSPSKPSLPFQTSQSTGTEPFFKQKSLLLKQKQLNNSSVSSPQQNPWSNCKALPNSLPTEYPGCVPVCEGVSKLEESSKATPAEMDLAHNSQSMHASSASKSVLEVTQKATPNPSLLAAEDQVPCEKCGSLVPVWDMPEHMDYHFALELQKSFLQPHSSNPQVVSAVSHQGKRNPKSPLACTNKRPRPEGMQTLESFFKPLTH

| Structure (SMILES) | Potency |
| --- | --- |
| CC(C)(C)c1ccc(/C=N/Nc2nncn2N)cc1 | inactive |
| CCOC(=O)c1c(NC(=O)CN2CCN(S(=O)(=O)c3cc(Cl)ccc3Cl)CC2)sc(C(=O)N(C)C)c1C | inconclusive: 79.4 µM [inhibitor, partial curve, poor fit] |
| C=C(C)C(=O)Nc1cccc(C2=NOC3(C2)C[C@@H](C(N)=O)N(C(=O)C(=C)C)C3)c1 (some centres not stated) | active: 10 µM |
| COc1cc(/C=C2\COC/C(=C\c3ccc(O)c(OC)c3)C2=O)ccc1O | inconclusive: 50.1 µM [inhibitor, partial curve] |
| C/C(CC(=O)Nc1cccc(C(F)(F)F)c1)=N\NC(=O)Cc1ccccc1 | inconclusive: 89.1 µM [inhibitor, partial curve, poor fit] |
| COc1ccc(/C=C/C(=O)N2CCC(c3nc4ccccc4o3)CC2)cc1OC | inactive |
| O=C1NC(=S)S/C1=C/c1ccc(N2CCOCC2)o1 | inconclusive: 56.2 µM [inhibitor, partial curve, poor fit] |
| CCS(=O)(=O)C1=NSC2=NC(=O)/C(=C\c3ccc(OS(=O)(=O)c4ccccc4)cc3)C(=N)N21 | active: 20 µM |
| CC(NCc1cccc(OCc2ccccc2)c1)C(O)c1ccccc1 (configuration not stated) | inconclusive: 79.4 µM [inhibitor, partial curve, poor fit] |
| O=C(O)c1ccc(/C=N/NC(=O)c2ccc(CN3c4cccc5cccc(c45)S3(=O)=O)cc2)cc1 | active: 22.4 µM |
| c1csc(-c2nn3c(C4COc5ccccc5O4)nnc3s2)c1 (configuration not stated) | inactive |
| Cc1c(-c2nsc(NC(=O)c3cccs3)n2)nnn1-c1ccc(Cl)cc1 | inconclusive: 79.4 µM [inhibitor, partial curve] |
| Cc1[nH]n(-c2ccccc2)c(=O)c1C(C[N+](=O)[O-])c1ccc(Br)cc1 (configuration not stated) | inactive |
| COc1cccc(Nc2nn3c(=O)c4ccccc4nc3s2)c1 | active: 50.1 µM |
| COc1ccc(OCC(=O)Nc2nnc(-c3ccco3)s2)cc1 | active: 56.2 µM |
| Cc1cc(C)c2c(N)c(C(=O)NN3CC(=O)N(c4ccccc4)CC3=O)sc2n1 | inactive |
| Oc1ccc(/C=N/Nc2ccnc3cc(Cl)ccc23)c(O)c1 | inconclusive: 44.7 µM [inhibitor, partial curve] |
| COc1ccc(-c2cc3ccccc3n2CC(O)CNCCO)cc1 (configuration not stated) | inconclusive: 89.1 µM [inhibitor, partial curve, poor fit] |
| CC(C(=O)NCc1ccccc1)N1Cc2ccccc2C1=O (configuration not stated) | inactive |
| COc1cc(/C=C(\C#N)C(=O)N2CCc3ccccc32)ccc1O | inactive |
| COc1cccc(NC(=O)CN(C)S(=O)(=O)c2cccs2)c1 | inactive |
| CN(C)CC1CC/C(=C\c2ccc(O)cc2)C1=O (configuration not stated) | inconclusive: 10 µM [inhibitor, partial curve, poor fit] |
| O=C1C2CC=C(Cl)CC2C(=O)N1CCCCCCN1C(=O)C2CC=C(Cl)CC2C1=O (configuration not stated) | active: 20 µM |
| O=C(CSc1nc(-c2ccccc2)[nH]c1-c1ccccc1)Nc1ccc2c(c1)OCO2 | inactive |

| Structure (SMILES) | Potency |
| --- | --- |
| Cc1cccc(Nc2nc(-c3ccccc3)c3cc(C)ccc3n2)c1 | inactive |
| Cn1nnnc1SCc1cc(=O)n2ccsc2n1 | inactive |
| COc1cccc2c(SCC(=O)N/N=C/c3ccc(O)c(O)c3)cc(C)nc12 | active: 7.94 µM |
| CCC(=O)N1c2ccccc2CC1C(=O)NCCN1CCN(c2cccc(C)c2C)CC1 (configuration not stated) | inactive |
| Cc1csc2nc(COc3ccc(NC(=O)COc4ccccc4F)cc3)cc(=O)n12 | inactive |
| O=C(NCc1ccccc1)C1=C[C@H](C2CCCCC2)C[C@H](OCc2ccc(CO)cc2)O1 | inconclusive: 89.1 µM [inhibitor, partial curve, poor fit] |
| Cc1ccc(NC(=O)Cn2cnc3c(oc4nc5c(cc43)COC(C)(C)C5)c2=O)cc1 | inconclusive: 35.5 µM [inhibitor, single point] |
| Cc1cc(=O)oc2cc(OCCCN3C(=O)c4ccccc4C3=O)ccc12 | inconclusive: 8.91 µM [inhibitor, full curve, poor fit] |
| O=c1c2oc3nc4c(cc3c2ncn1CCCc1ccccc1)CCCC4 | inactive |
| Cc1ccc(NC(=O)CN(C)C(=O)c2ccc(OCc3cn4ccccc4n3)cc2)cc1 | inactive |
| O=C(Cc1ccccc1)Nc1cccc([N+](=O)[O-])c1 | inactive |
| COc1cc(-c2[nH]nc3c2C(c2ccoc2)C(C#N)=C(N)O3)cc(OC)c1OC (configuration not stated) | inconclusive: 12.6 µM [inhibitor, full curve, poor fit] |
| Cc1ccc(C2=NN(CCC(=O)NCCc3cccc(C)c3)C(=O)CC2)cc1 | inactive |
| COc1ccc(C(=O)OCC(=O)Nc2sccc2C(N)=O)cc1OC | inactive |
| O=C(COC(=O)Cn1cnc2ccccc2c1=O)Nc1cc(Cl)ccc1[N+](=O)[O-] | inconclusive: 17.8 µM [inhibitor, partial curve, poor fit] |
| CCN1CCN(c2ccc(NC(=O)c3cccc(S(=O)(=O)N4CCCC4)c3)cc2)CC1 | inconclusive: 79.4 µM [inhibitor, partial curve, poor fit] |
| Cn1c(SCC(=O)Nc2ccc(N3CCOCC3)c(Cl)c2)nnc1C(O)c1ccccc1 (configuration not stated) | inactive |
| COc1ccc(OC)c(CCNC(=O)CSc2ccsc2[N+](=O)[O-])c1 | active: 39.8 µM |
| O=C(CCOc1ccccc1)Nc1ccccc1 | inconclusive: 2.24 µM [inhibitor, full curve, poor fit] |
| COc1cc(/C=C2\CCn3c2nc2cc(C(=O)O)ccc2c3=O)ccc1OC(F)F | inconclusive: 20 µM [inhibitor, full curve, poor fit] |
| CNC(=O)CSc1nnc(NC(=O)C2CC(=O)N(c3ccccc3OC)C2)s1 (configuration not stated) | inconclusive: 7.94 µM [inhibitor, partial curve, poor fit] |
| CCCc1nc2oc3c(NCc4ccccn4)ncnc3c2c2c1COC(C)(C)C2 | inconclusive: 17.8 µM [inhibitor, partial curve, poor fit] |
| Cc1ccc(CNc2nc3ccc(C)cc3n3cnnc23)cc1 | inconclusive: 79.4 µM [inhibitor, partial curve, poor fit] |

— PubChem BioAssay AID588591 (National Center for Advancing Translational Sciences (NCATS), 2011)
